In all, about 360,000 compounds went through this assay and about 7,500 (2.1%) were called active. The shares of active, inactive and inconclusive entries below differ from those in the screen. The call rests on the fitted dose curve; in most records, active means well fitted cell-killing curve with a large enough effect; inconclusive means small, poorly fitted or top-dose-only effect, or effect the other way, or another doubt; inactive means no such curve, though single readings can be large or run the other way. Potencies of inconclusive entries are left out as doubtful fits.
Assay: qHTS for induction of synthetic lethality in tumor cells producing 2HG: qHTS for the HT-1080-IDH1KD cell line
Conditions: HT-1080 IDH1 knockdown viability, ATP luminescence, 48 h; series mostly up to 46.1 µM
Outline: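 IDH1KD HT-1080 cells, 750/well, RPMI + 5% FBS; compound pinned after 2 h settling; 48 h, 37 °C; CellTiter-Glo luminescence; % activity normalised to DMSO and no-cell wells; curves fitted, classed by r2 and efficacy.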
Potency means the concentration at half of the fitted maximal effect; tags describe the fitted curve by direction and shape.

Row | Structure (SMILES) | Potency
1 | COc1ccc(Cc2c(C3CCCCC3)nc3c(Cl)cc(C(F)(F)F)cn23)c(C)c1 | inconclusive [cytotoxic, single point]
2 | COc1ccc2oc(=O)c(-c3csc(Nc4cccc(O)c4)n3)cc2c1 | inconclusive [cytotoxic, single point]
3 | COc1cc(C2C(C#N)=C(N)N(Nc3ccccc3)C3=C2C(=O)CC(C)(C)C3)ccc1OCc1cccc(F)c1 (centres undefined) | inconclusive [cytotoxic, partial curve]
4 | COC(=O)Nc1nc(-c2ccccc2)c(C(=O)c2ccc(Cl)cc2)s1 | inconclusive [cytotoxic, full curve]
5 | O=c1[nH]c(=O)c2nnc(N/N=C\c3ccc(O)cc3)nc2[nH]1 | inactive
6 | CC1(C)CC(Nc2ccc(C(F)(F)F)cc2[N+](=O)[O-])CC(C)(C)N1 | inconclusive [cytotoxic, single point]
7 | CCCCn1c(=O)nc2n(-c3ccccc3C)c3ccccc3cc-2c1=O | inactive
8 | CCOc1ccc(S(=O)(=O)N(CC)CC)cc1N | inactive
9 | C/C(=N\NC(=O)c1cc(-c2ccc(C)s2)[nH]n1)c1ccco1 | inactive
10 | CCC(CC)C(=O)N=C1SC2CS(=O)(=O)CC2N1CCc1ccc(OC)cc1 (centres undefined) | inconclusive [rising, full curve, poor fit]
11 | Cc1occc1-c1nnc(SCC(=O)NC2CCCC2)n1C | inconclusive [rising, single point]
12 | Nc1c(C(=O)NCc2ccc(F)cc2)c2nc3ccccc3nc2n1CCCN1CCOCC1 | inconclusive [cytotoxic, single point]
13 | CCOc1cc(/C=N/Nc2nc(N3CCCC3)nc(N3CCCC3)n2)ccc1O | inactive
14 | Cc1ccc(-n2cc(CN3CCCN(C=O)CC3)c(-c3ccc(F)cc3)n2)cc1 | inactive
15 | CNC(=O)c1sc2nc(-c3ccc(OC)cc3)cn2c1C | inactive
16 | CCCN(C(=O)COC(=O)CCOc1ccc(C)cc1)c1c(N)n(Cc2ccccc2)c(=O)[nH]c1=O | inconclusive [cytotoxic, single point]
17 | CCCCN1CNC(=S)N(c2cc(C)ccc2C)C1 | inconclusive [cytotoxic, single point]
18 | COc1ccc(-c2ccc(CCC(=O)O)o2)cc1 | inconclusive [cytotoxic, partial curve]
19 | Cc1ccc(-c2[nH]nc(N)c2N=Nc2ccccc2C)cc1 | active: 18.4 µM
20 | COc1cc(OC)cc(C(=O)NCCCNC(=O)c2cccnc2)c1 | inconclusive [cytotoxic, single point]
21 | CCCc1[nH]c2ccc(C#N)cc2c1CCC | inconclusive [cytotoxic, single point]
22 | Cc1cc(OCc2cc(C(=O)N(Cc3nccn3C)C(C)C)no2)cc(C)c1Cl | inconclusive [cytotoxic, single point]

Row | Structure (SMILES) | Potency
23 | CC(C)(C)c1ccc(C(=O)Nc2ccc(Oc3cccnc3)nc2)cc1 | inconclusive [cytotoxic, partial curve]
24 | O=C(NC(=S)N1CCN(c2ccc(O)cc2)CC1)c1cccs1 | inconclusive [cytotoxic, partial curve]
25 | OCC1(CCc2ccccc2)CCN(Cc2cc(Cl)ccc2O)CC1 | inconclusive [cytotoxic, partial curve]
26 | COc1cc(F)ccc1CN1CCC(C(=O)Nc2ccc(Oc3ccccc3)nc2)CC1 | active: 20.6 µM
27 | COc1ccc(NC(=O)c2ccc(-c3ccc(-c4noc(C)n4)cc3C)cc2)cc1N1CCN(C)CC1 | active: 23.1 µM
28 | O=c1c(Br)c(Br)cnn1-c1ccccc1 | active: 4.11 µM
29 | CCOC(=O)[C@]12CCCC=C1N(Cc1ccc(Cl)cc1Cl)C(=O)[C@H](CC(=O)NCc1ccc(OC)c(OC)c1)C2 | inconclusive [cytotoxic, single point]
30 | COc1ccccc1CCNC(=O)C(=O)NCC1CCCN1S(=O)(=O)c1ccccc1 (centres undefined) | inconclusive [cytotoxic, full curve, poor fit]
31 | CCOC(=O)C(C)N1C(=O)S/C(=C/c2cc(C)n(-c3ccccn3)c2C)C1=O (centres undefined) | inactive
32 | CC(C)Nc1nnc(SCC(=O)N2CCN(C(=O)c3ccco3)CC2)s1 | inactive
33 | Cc1c(C(=O)N2CCN(c3ncccn3)CC2)oc2ccc(Cl)cc12 | inactive
34 | CCN1CCN(Cc2ccc(NC(=O)c3ccc(C)c(NC(=O)c4cccc5[nH]ccc45)c3)cc2C(F)(F)F)CC1 | inconclusive [cytotoxic, single point]
35 | CCC(C)[C@H](NC(=O)[C@H](Cc1ccccc1)n1c(=O)[nH]c2ccccc2c1=O)C(=O)N1CCC(C(=O)O)CC1 (some centres undefined) | inconclusive [cytotoxic, single point]
36 | COC(=O)[C@@]1(Cc2ccc(F)cc2)[C@H]2c3cc(C(=O)N(C)C)n(Cc4ccc(C)o4)c3C[C@H]2CN1C(=O)c1ccccc1 | active: 20.6 µM
37 | CN(C(=O)c1cccc(NC(=O)Cc2cccc(NC(=O)C3CCN(C(=O)C4CCCCC4)CC3)c2)c1)C1CCC1 | inactive
38 | CC(Oc1ccccc1C(N)=O)C(=O)Nc1ccc(S(=O)(=O)N2CCCC2)cc1 (centres undefined) | inactive
39 | CCc1cccc(CC)c1NC(=O)COC(=O)c1cccc(S(=O)(=O)N2CCc3ccccc3C2)c1 | inconclusive [rising, partial curve]
40 | CN1CCN(c2ccccc2NC(=O)c2ccc(N3CCCC3)c([N+](=O)[O-])c2)CC1 | inconclusive [cytotoxic, partial curve, poor fit]
41 | CCc1nc2c(OCc3cccc(Cl)c3)cccn2c1N(C)C(C)=O | inactive
42 | Cc1ccc2nc(C(C)(C)C)c(Cc3cccc(Cl)c3)n2c1 | inconclusive [cytotoxic, single point]
43 | COc1ccc(Br)cc1/C(C)=N/NC1=NCCN1 | inconclusive [cytotoxic, partial curve]
44 | N#Cc1ccc(-c2ccc(OCC(=O)Nc3cccnc3)cc2)cc1 | inconclusive [cytotoxic, single point]

— PubChem BioAssay AID686971 (National Center for Advancing Translational Sciences (NCATS), 2013)
